According to PMC10668032:
The list shows a part of the results. At the low end of the ranking the order means little.

Biological target: SIX1 homeodomain (reference allele) (UniProt Q15475)
Assay: universal protein binding microarray
Details: Universal all-10-mer PBM (8x60K, AMADID 030236), 300 nM GST-tagged protein, Alexa Fluor 488 anti-GST; buffer, salt, pH and temperature not stated; high values mean tight binding; most listed sequences are background and not binding sites; double strand, one strand shown

| Sequence | binding signal [E-score] |
| --- | --- |
| AAAATAAA | -0.209 |
| GGACTAAC | -0.288 |
| GCCCTGAA | -0.225 |
| CCTTAAGC | -0.11 |
| GCCAATCC | 0.111 |
| CTCAGATA | 0.31 |
| CGTAGCGA | 0.0205 |
| TATTCTCA | 0.19 |
| GTACTAGA | -0.0126 |
| CATCGCGG | -0.0658 |
| AACGCCGG | -0.11 |
| CTATAGAC | -0.0375 |
| CCACGCAC | -0.177 |
| ACAACAAT | 0.029 |
| GCACGACC | 0.121 |
| GGGTGCAA | 0.144 |
| AGGTAATG | -0.208 |
| CTAGTCTC | -0.137 |
| ATAGTCGC | 0.0924 |
| GCGGGGGA | 0.227 |
| TCGGTTCA | 0.0327 |
| CTGCATCA | 0.0374 |
| ACTTACAG | -0.0465 |
| ATACGAGC | 0.23 |
| ACCATACC | 0.154 |

| Sequence | binding signal [E-score] |
| --- | --- |
| TCTACCCA | 0.221 |
| ACTATCTC | 0.209 |
| GATTCTAC | 0.139 |
| GACTGTCA | -0.238 |
| GCGGGCCC | -0.361 |
| GTCAAAGA | -0.183 |
| AGTCGAAG | -0.135 |
| GACTTTCC | -0.221 |
| GGAAGTGA | 0.134 |
| CGGCCAAG | -0.223 |
| CTCGTAAG | -0.0564 |
| ACCCAAAC | 0.0551 |
| CGCAATTA | -0.158 |
| TGGACCCA | -0.173 |
| ATGCCCAT | 0.142 |
| ATCAGTAC | 0.224 |
| AGCAGTTA | -0.216 |
| ATTATGAC | -0.0338 |
| GGGGTGGA | 0.0103 |
| ACCCACTG | -0.0215 |
| CACATCCC | 0.0267 |
| ATCCCGCG | 0.323 |
| GTGAGTCA | -0.332 |
| ACGCCTGA | 0.0439 |
| GAAGCCCA | -0.158 |

| Sequence | binding signal [E-score] |
| --- | --- |
| AACGTCGC | -0.238 |
| ATGAACCA | 0.0508 |
| ATATAAAG | 0.154 |
| AAATGACT | -0.271 |
| AAACATCT | -0.302 |
| ATTGATTA | 0.00338 |
| ATCAGTGC | 0.0879 |
| TATCAATA | 0.407 |
| ATCGGGAG | 0.127 |
| CCTGGAAA | -0.351 |
| AACGATGG | -0.123 |
| AAATACCG | 0.178 |
| ATAACATA | 0.0247 |
| ATATGGTG | 0.362 |
| TTCGTAAA | -0.198 |
| AGCCTTTG | -0.0186 |
| ATGTTAAA | -0.21 |
| GTGCACTA | -0.0712 |
| GTGACAGA | -0.127 |
| ATCCAGAG | 0.304 |
| GTAACTAC | -0.0994 |
| CATCCGGC | 0.226 |
| CCGAGGCC | -0.00378 |
| GCGCAGAC | -0.204 |
| AGATTTAT | 0.0465 |

| Sequence | binding signal [E-score] |
| --- | --- |
| AAAATGAA | -0.202 |
| ACAGACTG | -0.126 |
| AACCCTTA | -0.101 |
| GCTCTCAC | -0.102 |
| CAGCTTGG | -0.14 |
| TGGTGACA | 0.156 |
| TATAGTAA | 0.0109 |
| CAGCGAGA | 0.0719 |
| ACAATAAG | 0.0839 |
| AATTGTTA | -0.208 |
| CATACAGC | -0.215 |
| TTAAGTAA | 0.0754 |
| AAGGGTGA | 0.21 |
| CAACGGGC | -0.242 |
| AAAGCAAA | -0.224 |
| CTACCGCC | -0.176 |
| GACCGCTC | -0.262 |
| CCCGTTCA | -0.0331 |
| GATAATCC | 0.34 |
| GCCTAAAC | -0.153 |
| ATCCGTGA | 0.327 |
| GGCCATCA | -0.197 |
| CGGGAAAG | -0.114 |
| AGTGCGGA | 0.044 |
| ACTGTTGC | -0.217 |

| Sequence | binding signal [E-score] |
| --- | --- |
| AAGAGCCT | -0.103 |
| CGCTACCG | -0.152 |
| AGAAGTGA | 0.0694 |
| AGAGGGAT | 0.308 |
| CTGACAGC | -0.192 |
| ACCAATGA | -0.00671 |
| CATGTAGC | -0.0701 |
| CTCGAGGC | -0.0609 |
| CTCACTGC | 0.0968 |
| AGGGTACC | 0.00996 |
| CGGGTTGC | -0.0248 |
| AATCACGC | -0.19 |
| CGGCCCAG | -0.271 |
| AGCGGACC | -0.271 |
| AAGGTAGG | 0.123 |
| AAATGCTC | -0.349 |
| CGGCCTCC | -0.11 |
| CGCACCTC | -0.105 |
| CTAATATC | 0.339 |
| CTGTCAAC | -0.123 |
| ATCTCAAT | 0.183 |
| ATTTCCCC | -0.116 |
| ATGAAATC | -0.132 |
| AAGGGATT | 0.188 |
| AGTGATGA | 0.0123 |

| Sequence | binding signal [E-score] |
| --- | --- |
| TACCCTCA | 0.118 |
| CCTACCCG | 0.0727 |
| CCCGTGGC | 0.0561 |
| TATTGAAA | -0.044 |
| ACAATTAC | -0.157 |
| ATCTAGAA | 0.109 |
| CGATTCGA | 0.0128 |
| CGATATTC | 0.317 |
| AATTTGGT | -0.248 |
| GATAGACC | 0.0784 |
| CCAACATC | 0.0858 |
| CCAGGCCC | -0.167 |
| AGAACTGC | -0.125 |
| ACAAGGCC | -0.301 |
| ATCGCAAG | 0.115 |
| ACCACATA | 0.145 |
| GGTTTACA | 0.0179 |
| CAGGGGTC | 0.113 |
| TATGGGAA | -0.00618 |
| ATTTATCG | -0.0822 |
| AATCTCAA | 0.0868 |
| GACGCGTA | 0.0684 |
| CCAAAATC | -0.165 |
| AAGCACCT | -0.0882 |
| CAGGAGTC | -0.0727 |

| Sequence | binding signal [E-score] |
| --- | --- |
| ACGGGCCA | -0.139 |
| ACTCGAAA | -0.0729 |
| CTCGTCCA | -0.205 |
| GACACAAA | 0.0355 |
| CGCTCGCA | -0.179 |
| ATCATCTG | 0.374 |
| ATATGCTA | 0.241 |
| CGCTAGCG | -0.12 |
| CACAATGG | -0.0604 |
| CCGTCCGA | -0.114 |
| GATGAATA | 0.148 |
| AATGGGCC | -0.235 |
| CTGTCTAC | -0.01 |
| CACGAGTC | -0.0944 |
| ATGTAGCG | -0.275 |
| AGAGCCCT | -0.119 |
| CACGGTCG | -0.193 |
| CTGGGGTA | 0.259 |
| GATTACAA | 0.0322 |
| CTTGCTCC | -0.125 |
| CATTCTGC | -0.249 |
| ACTGCCCC | -0.102 |
